This assay is described as follows: Cell-based coincidence reporter assay to measure PMP22 gene transcription in S16 Pmp22-F2sN cells - Confirmatory screen (AID 1508646). Conditions: S16 Schwann cells Pmp22-F2sN, dual luciferase, 24 h. A digest of the protocol:
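S16 rat Schwann cells carrying FLuc-2A-NLuc reporter in Pmp22 3' UTR (500-1,000 cells/well) treated with pinned compounds for 24 h at 37C. Dual-luciferase reads: FLuc luminescence first, then NLuc after Stop&Glo.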
On the technique in general: A reporter such as luciferase makes a cellular process visible.

Where [1] appears, read: measured here: FLuc reporter channel.
[2] abbreviates: measured here: NLuc reporter channel.

The structures appear in SMILES notation. The list shows a part of the results. Further columns of the screen follow, without active or inactive calls. Compounds called inactive in the main read-out are mostly missing here. Words in brackets tell the shape of the fitted curve; partial curves, single points and poor fits give uncertain potencies.
Tags tell the direction and shape of the fitted curve.

On to `COc1ccc(N2CCN(c3c4c(nc5nncn35)CCC4)CC2)cc1`, for which the AC50 (as a rule, the concentration giving half of the maximal activity seen) was 24.3 µM [falling, partial curve] under setting [1] and 27.3 µM [falling, single point] under setting [2].
As to `COc1ccc(-c2cc(C(F)(F)F)nc(S(C)(=O)=O)n2)cc1`, the AC50 runs as follows: under setting [1], 13.7 µM [falling, partial curve]; under setting [2], 19.3 µM [falling, partial curve].
Take `CC1CCc2c(cc(-c3ccccc3)n2-c2ccc(C(=O)NC(C)C)cc2)C1` (configuration not stated): the AC50 under setting [1] was 21.7 µM [falling, partial curve] and the half-maximal activity concentration (AC50) under setting [2] was 24.3 µM [falling, partial curve].
Regarding `O=C(c1ccc(CS(=O)c2ccccc2Cl)o1)N1CCN(c2cccc(C(F)(F)F)c2)CC1` (configuration not stated), the half-maximal activity concentration (AC50) is, setting by setting: under setting [1], 1.22 µM [falling, full curve]; under setting [2], 7.69 µM [falling, partial curve].
In the case of `Cc1ccc(OCC(=O)Nc2ccc3nc(SCC(=O)N4CCc5ccccc54)sc3c2)cc1`, the half-maximal activity concentration (AC50) under setting [1] was 7.69 µM [falling, full curve] and the AC50 under setting [2] is 6.85 µM [falling, full curve].
Take `CC(CNC(=O)CCCn1c(=O)c2cccn2c2ccc(F)cc21)c1ccccc1` (configuration not stated): the AC50 runs as follows: under setting [1], 21.7 µM [falling, partial curve, poor fit]; under setting [2], 24.3 µM [falling, partial curve, poor fit].
For the molecule `O=C(NCCCN1CCN(c2ccc(F)cc2)CC1)c1cc2c(Cl)nc3ccccc3c2s1`, the half-maximal activity concentration (AC50) reads like this: under setting [1], 17.2 µM [falling, partial curve]; under setting [2], 19.3 µM [falling, partial curve, poor fit].
For `COc1ccc(Cl)cc1NC(=O)CCS(=O)(=O)c1nc(-c2cccs2)cc(C(F)(F)F)n1`, the AC50 is 6.85 µM [falling, full curve] under setting [1] and 10.9 µM [falling, partial curve] under setting [2].
For `COc1ccccc1NC(=O)Cn1c(=O)n(-c2cccc(Cl)c2)c(=O)c2sc3ccccc3c21`, the AC50 was 6.11 µM [falling, full curve] under setting [1] and 6.85 µM [falling, full curve] under setting [2].
Consider `CC(C)OCCCNC(=O)CSc1c2c(nc3ccc(Cl)cc13)CCCC2`, for which the AC50 under setting [1] is 19.3 µM [falling, partial curve] and the AC50 under setting [2] was 19.3 µM [falling, partial curve].
As to `CCN(CC)S(=O)(=O)c1ccc2c(c1)N(CC(=O)NCCCN1CCN(c3cc(Cl)ccc3C)CC1)C(=O)CO2`, the concentration at half-maximal activity (AC50) is, setting by setting: under setting [1], 34.3 µM [falling, partial curve]; under setting [2], 43.2 µM [falling, partial curve].
Turning to `CCOC(=O)c1cc(NC(=O)c2ccccc2)c(=O)n2c1oc1ccc(Cl)cc12`, the AC50 reads like this: under setting [1], 5.44 µM [falling, partial curve, poor fit]; under setting [2], 4.85 µM [falling, full curve].
Regarding `CCc1ccc(CNc2ncc(-c3cccc(OC)c3)n2C)cc1`, the AC50 reads like this: under setting [1], 17.2 µM [falling, partial curve]; under setting [2], 24.3 µM [falling, partial curve, poor fit].
With `COc1ccccc1NC(=O)Cn1nnc(C(=O)NCc2cccs2)c1N`, the concentration at half-maximal activity (AC50) runs as follows: under setting [1], 3.06 µM [falling, partial curve]; under setting [2], 3.06 µM [falling, partial curve].
On to `Cc1ccc(OCCSc2nc3ccc(NC(=O)COc4ccc(C)cc4)cc3s2)cc1`, for which the half-maximal activity concentration (AC50) reads like this: under setting [1], 30.6 µM [falling, single point]; under setting [2], 34.3 µM [falling, single point].
On to `COc1ccc(-c2noc(CSc3nnc(-c4ccncc4)n3-c3ccc(C)cc3)n2)cc1`, for which the half-maximal activity concentration (AC50) runs as follows: under setting [1], 4.32 µM [falling, full curve]; under setting [2], 3.06 µM [falling, full curve].
`COc1ccc(Cl)cc1NC(=O)Cn1c(=O)n(-c2ccc(C)cc2)c(=O)c2ccc(C(=O)NCc3ccccc3Cl)cc21`: the AC50 is 6.85 µM [falling, full curve] under setting [1] and 15.3 µM [falling, partial curve] under setting [2].
For `CC(C)OCCCNC(=O)c1ccc(-n2c(-c3ccccc3)cc3c2CCCC3)cc1`, the concentration at half-maximal activity (AC50) was 21.7 µM [falling, partial curve, poor fit] under setting [1] and 24.3 µM [falling, partial curve, poor fit] under setting [2].
Turning to `CCN(CC)c1ccc(NC(=O)CCCN2C(=O)C(c3ccccc3)Oc3cccnc32)c(C)c1` (configuration not stated), the AC50 was 6.85 µM [falling, partial curve] under setting [1] and 10.9 µM [falling, partial curve, poor fit] under setting [2].
`CSc1ccc(CCNC(=O)c2c(C)nn(-c3ccc(F)cc3)c2-n2cccc2)cc1`: the AC50 reads like this: under setting [1], 21.7 µM [falling, partial curve, poor fit]; under setting [2], 8.62 µM [falling, partial curve, poor fit].
Turning to `Cc1cc(Nc2ccc(F)cc2)nc(-n2nc(C)cc2C)n1`, the AC50 was 19.3 µM [falling, partial curve] under setting [1] and 13.7 µM [falling, partial curve] under setting [2].
Consider `CCOC(=O)COc1ccc(C)cc1C(=O)c1ccn2nc(-c3ccc(F)cc3)cc2n1`, for which the concentration at half-maximal activity (AC50) by setting is: under setting [1], 8.62 µM [falling, full curve, poor fit]; under setting [2], 19.3 µM [falling, partial curve].
Regarding `COc1ccc(NC(=O)c2ccc3c(=O)n4nc(Nc5ccccc5C)sc4nc3c2)cc1Cl`, the AC50 under setting [1] was 15.3 µM [falling, partial curve] and the half-maximal activity concentration (AC50) under setting [2] is 15.3 µM [falling, partial curve].
With `COc1ccc(-c2c(C)nn3c(N4CCN(c5ccccc5)CC4)cc(C)nc23)cc1OC`, the AC50 under setting [1] was 21.7 µM [falling, partial curve] and the half-maximal activity concentration (AC50) under setting [2] was 30.6 µM [falling, single point].
As to `COc1ccccc1CNc1nc2c(S(=O)(=O)c3ccc(C)c(C)c3)nnn2c2ccc(Cl)cc12`, the half-maximal activity concentration (AC50) runs as follows: under setting [1], 8.62 µM [falling, full curve]; under setting [2], 6.85 µM [falling, full curve].
As to `COc1ccc(NC(=O)Cn2c(=O)n(CCC(=O)NCc3ccccc3OC)c(=O)c3ccccc32)cc1Cl`, the AC50 is, setting by setting: under setting [1], 13.7 µM [falling, full curve]; under setting [2], 12.2 µM [falling, full curve].
On to `COc1cccc(NC(=O)CSc2ncc3c(n2)-c2ccc(Cl)cc2N(C)S3(=O)=O)c1`, for which the half-maximal activity concentration (AC50) by setting is: under setting [1], 27.3 µM [falling, single point]; under setting [2], 43.2 µM [falling, partial curve, poor fit].
`O=C(CCS(=O)(=O)c1nc(-c2cccs2)cc(C(F)(F)F)n1)Nc1ccc(OC(F)(F)F)cc1`: the half-maximal activity concentration (AC50) runs as follows: under setting [1], 6.11 µM [falling, full curve]; under setting [2], 12.2 µM [falling, partial curve].
With `CC(=O)Nc1cccc(NC(=O)C(=O)NCCc2sc(-c3ccccc3)nc2C)c1`, the AC50 is 3.43 µM [falling, full curve] under setting [1] and 3.85 µM [falling, full curve] under setting [2].
Consider `COC(=O)c1ccccc1NC(=O)CCS(=O)(=O)c1nc(-c2ccc3c(c2)OCO3)cc(C(F)(F)F)n1`, for which the AC50 is 19.3 µM [falling, partial curve] under setting [1] and 19.3 µM [falling, partial curve] under setting [2].
For the molecule `CCCOc1ccc(CN2C(=O)C(=O)c3cccc(C)c32)cc1`, the AC50 is 24.3 µM [falling, partial curve] under setting [1] and 24.3 µM [falling, partial curve] under setting [2].
On to `Cc1cccc(Nc2nc3c(S(=O)(=O)c4ccc(Br)cc4)nnn3c3ccsc23)c1C`, for which the concentration at half-maximal activity (AC50) is, setting by setting: under setting [1], 9.68 µM [falling, full curve]; under setting [2], 13.7 µM [falling, single point].
Turning to `COc1ccc(Cl)cc1NC(=O)CSC1=Nc2ccccc2C2=NC(CCC(=O)NCc3ccco3)C(=O)N12` (configuration not stated), the AC50 is 13.7 µM [falling, partial curve, poor fit] under setting [1] and 10.9 µM [falling, partial curve, poor fit] under setting [2].
As for `Cc1cc(C)c(NC(=O)Cn2c(=O)oc3cc(S(=O)(=O)N4CCCCCC4)ccc32)c(C)c1`, the AC50 was 30.6 µM [falling, partial curve, poor fit] under setting [1] and 30.6 µM [falling, partial curve, poor fit] under setting [2].
With `CCOc1ccc(OCC)c(NC(=O)c2nnn(CC(=O)Nc3cc(Cl)ccc3OC)c2N)c1`, the AC50 is, setting by setting: under setting [1], 13.7 µM [falling, full curve]; under setting [2], 13.7 µM [falling, full curve].
As to `CCOC(=O)c1c(C)oc2nc(C)nc(NCCc3ccc(OCC)cc3)c12`, the AC50 reads like this: under setting [1], 12.2 µM [falling, full curve, poor fit]; under setting [2], 12.2 µM [falling, full curve].
On to `COc1ccc(Br)cc1CC1C(=O)Nc2ccccc21` (configuration not stated), for which the concentration at half-maximal activity (AC50) under setting [1] was 0.0077 µM [falling, full curve, poor fit] and the concentration at half-maximal activity (AC50) under setting [2] was 0.122 µM [falling, full curve, poor fit].
Take `COc1cc2c(=O)c(C(=O)c3ccc(C)c(C)c3)cn(Cc3ccccc3F)c2cc1OC`: the half-maximal activity concentration (AC50) under setting [1] is 24.3 µM [falling, partial curve] and the half-maximal activity concentration (AC50) under setting [2] is 24.3 µM [falling, partial curve].
Consider `COc1ccc(Nc2c3c(nc4ccc(NC(=O)c5cc(Cl)ccc5OC)cc24)CCCC3)cc1OC`, for which the concentration at half-maximal activity (AC50) by setting is: under setting [1], 9.68 µM [falling, full curve]; under setting [2], 9.68 µM [falling, full curve].
Take `CCCN(C(=O)Cn1nc(Cc2ccncc2)c2ccccc2c1=O)c1ccccc1C`: the concentration at half-maximal activity (AC50) under setting [1] was 17.2 µM [falling, partial curve, poor fit] and the AC50 under setting [2] is 15.3 µM [falling, partial curve, poor fit].
Take `CCCn1c(=N)c(C(=O)NC(C)c2ccccc2)cc2c(=O)n3ccccc3nc21` (configuration not stated): the half-maximal activity concentration (AC50) reads like this: under setting [1], 5.44 µM [falling, partial curve]; under setting [2], 3.85 µM [falling, full curve].
